Screen size: about 220,000 compounds; about 5,700 (2.6%) were called active. The shares of active, inactive and inconclusive entries below differ from those in the screen. Calls follow the shape of the dose curve; as a rule, active = well fitted inhibition curve with a large enough effect; inconclusive = small, poorly fitted or top-dose-only effect; inactive = no such curve, though single readings can be large or run the other way. Potencies of inconclusive entries are doubtful fits and often do not repeat.
Biological target: Lysine-specific demethylase 5B (Homo sapiens) (UniProt Q9UGL1)
Assay: Primary screen for KDM5B Histone Demethylases FDH-coupled qHTS; also: nearly all actives have a fitted effect of over 70% in size; as to activity change, negative = inhibition: 0% is about no effect
Details: FDH-coupled NADH fluorescence (FDH is formaldehyde dehydrogenase); activity change, negative = inhibition: at 57.7 µM (top of the series) unless noted
Outline: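 Measured: NADH fluorescence change, 30 min, RT. System: KDM5BΔAP 200 nM final, H3K4me3 peptide, α-KG, Fe(II), ascorbate, NAD⁺ plus FDH, pH 7.5 HEPES. Compounds: titrated, 10 min pre-incubation with enzyme.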
Potency is read from the fitted curve at half-maximal effect; tags tell the direction and shape of the fitted curve.

Sequence of UniProt Q9UGL1 (Q9UGL1 whole entry, looked up): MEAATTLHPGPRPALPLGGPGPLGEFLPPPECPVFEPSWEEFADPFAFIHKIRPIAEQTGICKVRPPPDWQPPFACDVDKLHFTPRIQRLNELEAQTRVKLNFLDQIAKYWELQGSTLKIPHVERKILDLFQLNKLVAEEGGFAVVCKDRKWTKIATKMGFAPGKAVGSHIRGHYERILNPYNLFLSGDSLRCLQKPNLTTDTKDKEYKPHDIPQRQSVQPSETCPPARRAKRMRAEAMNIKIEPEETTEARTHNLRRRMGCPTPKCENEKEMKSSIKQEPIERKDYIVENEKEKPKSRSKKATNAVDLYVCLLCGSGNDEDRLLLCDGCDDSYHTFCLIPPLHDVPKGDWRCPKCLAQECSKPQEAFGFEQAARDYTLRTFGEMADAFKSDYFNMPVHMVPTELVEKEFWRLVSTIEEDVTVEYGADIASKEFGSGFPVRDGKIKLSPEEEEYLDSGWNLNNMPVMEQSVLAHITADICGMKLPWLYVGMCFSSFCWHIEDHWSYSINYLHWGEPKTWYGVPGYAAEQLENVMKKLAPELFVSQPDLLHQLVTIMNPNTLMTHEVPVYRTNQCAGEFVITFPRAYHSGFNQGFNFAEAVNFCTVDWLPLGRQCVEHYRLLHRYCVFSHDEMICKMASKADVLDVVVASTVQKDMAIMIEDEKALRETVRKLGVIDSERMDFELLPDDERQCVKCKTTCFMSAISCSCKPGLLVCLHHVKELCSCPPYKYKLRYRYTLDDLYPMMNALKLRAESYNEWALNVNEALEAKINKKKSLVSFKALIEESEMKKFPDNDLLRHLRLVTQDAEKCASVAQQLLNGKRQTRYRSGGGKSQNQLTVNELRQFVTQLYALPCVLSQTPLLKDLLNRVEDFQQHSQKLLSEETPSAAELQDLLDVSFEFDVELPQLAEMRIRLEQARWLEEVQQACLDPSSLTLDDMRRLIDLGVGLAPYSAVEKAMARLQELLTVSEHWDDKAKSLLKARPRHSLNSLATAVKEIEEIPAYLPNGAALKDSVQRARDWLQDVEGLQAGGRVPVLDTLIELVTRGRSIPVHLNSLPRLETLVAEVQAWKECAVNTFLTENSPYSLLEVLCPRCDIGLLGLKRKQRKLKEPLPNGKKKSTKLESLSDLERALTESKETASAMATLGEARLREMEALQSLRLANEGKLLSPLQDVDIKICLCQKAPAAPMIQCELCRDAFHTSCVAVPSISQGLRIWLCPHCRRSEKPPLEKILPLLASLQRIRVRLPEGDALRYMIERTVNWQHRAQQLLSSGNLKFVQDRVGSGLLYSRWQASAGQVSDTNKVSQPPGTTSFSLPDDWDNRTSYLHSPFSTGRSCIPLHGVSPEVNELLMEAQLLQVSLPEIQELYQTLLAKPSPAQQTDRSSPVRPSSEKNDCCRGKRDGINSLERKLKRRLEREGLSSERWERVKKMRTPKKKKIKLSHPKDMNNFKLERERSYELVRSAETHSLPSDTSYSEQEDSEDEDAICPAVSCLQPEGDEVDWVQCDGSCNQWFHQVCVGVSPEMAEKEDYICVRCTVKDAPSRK

Row | SMILES | activity change, negative = inhibition | Potency
1 | CCCn1cc(CNc2cc(CC)nc3c(C)c(C)nn23)cn1 | inactive: -20.7% | –
2 | CC(C)C[C@@H]1N[C@H](C(=O)NCCN2CCCC2)Cc2c[nH]c3cccc1c23 | – | inconclusive: 28.2 µM [inhibitor, partial curve, poor fit]
3 | Cc1ccccc1OCC(=O)OCC(=O)Nc1ccc(Cl)cn1 | inactive: -5.27% | –
4 | Cc1noc(C)c1-c1cc(-c2ccc(CO)cc2)cn2cncc12 | – | active: 35.5 µM
5 | CCn1cnc2c1c(=O)n(CC(=O)Nc1ccc3c(c1)OCO3)c(=O)n2Cc1ccccc1 | inactive: -10.8% | –
6 | CCOC(=O)c1cnc2c(ccc3ccccc32)c1Nc1cccc(OC)c1 | – | inconclusive: 28.2 µM [inhibitor, single point]
7 | O=C(/C=C/c1ccc(Cl)cc1)c1cccc(O)c1 | – | inconclusive: 28.2 µM [inhibitor, partial curve, poor fit]
8 | Cc1ccc(CN(Cc2ccco2)C(=O)COc2cc(C)c(Cl)c(C)c2)cc1 | – | inconclusive: 15.8 µM [inhibitor, partial curve, poor fit]
9 | O=C(c1ccc(N2CC3CC(C2)[C@H]2CCCC(=O)N2C3)nc1)N1CCN(c2ncccn2)CC1 (stereo partly drawn) | – | inconclusive: 25.1 µM [inhibitor, single point]
10 | COc1cccc(CN2CCCN(S(=O)(=O)c3ccccc3)CCC(=O)NCC2)c1 | – | inconclusive: 39.8 µM [inhibitor, single point]
11 | Cn1ccc(NC(=O)c2ccc(-c3ncc4cnc(-c5cccc(F)c5)cn34)cc2)n1 | – | inconclusive: 56.2 µM [inhibitor, single point]
12 | C#CCN1CCC(C(=O)NCC(c2ccccc2)c2ccccc2)CC1 | inactive: 19% | –
13 | Cc1ccc2nc(-c3ccccc3)cc(C(=O)NCC3CCCO3)c2c1 (stereo not drawn) | – | inconclusive: 22.4 µM [inhibitor, partial curve, poor fit]
14 | CSCC[C@H](NC(=O)[C@H](C)n1nnc2ccccc2c1=O)C(=O)O | inactive: -3.99% | –
15 | COc1ccc(-c2nnc(SCC(=O)NCc3ccc(C)cc3)nc2-c2ccc(OC)c(OC)c2)cc1OC | – | inconclusive: 39.8 µM [inhibitor, single point]
16 | CCCCCCCCOc1ccc(-c2ccc(CCCCCCCC)cn2)cc1F | inactive: 18.7% | –
17 | CC1(C(=O)NCc2cc3n(n2)CCCN(S(C)(=O)=O)C3)CCCCO1 (stereo not drawn) | inactive: 31% | –
18 | Cc1cccc(CN2CCN(C(=O)c3cnc4ccccn4c3=O)CC2=O)c1 | – | active: 31.6 µM
19 | O=C(CSC1=Nc2ccccc2C2=NC(c3ccccc3)C(=O)N12)Nc1ccccc1Cl (stereo not drawn) | – | inconclusive: 28.2 µM [inhibitor, partial curve, poor fit]
20 | CCc1noc(-c2ccn3c(CNC(=O)c4cccc(F)c4)nnc3c2)n1 | inactive: -1490% | –
21 | COc1ccc(/C=C2\C(=O)ON=C2c2ccccc2)cc1 | – | inconclusive: 12.6 µM [inhibitor, partial curve, poor fit]
22 | O=C(c1cc2ccccc2[nH]1)N1CCC(N2CC(OCC3CC3)C23CCOCC3)CC1 (stereo not drawn) | – | inconclusive: 28.2 µM [inhibitor, partial curve, poor fit]
23 | O=C(NCc1ccco1)[C@@H]1Cc2nc[nH]c2CN1Cc1ccc(Cl)cc1 | – | inconclusive: 31.6 µM [inhibitor, partial curve, poor fit]

Row | SMILES | activity change, negative = inhibition | Potency
24 | CCN(CC)c1cc(C)c2cc(NC(=O)c3ccccc3OC)ccc2n1 | – | inconclusive: 25.1 µM [inhibitor, partial curve, poor fit]
25 | CC(=O)CC(=O)N(CCC[N+](C)(C)C)CCC[N+](C)(C)C | inactive: 1.04% | –
26 | Cc1nc2cc(-c3ccccc3)nn2c(C)c1CCC(=O)NCCC(C)C | – | inconclusive: 20 µM [inhibitor, partial curve, poor fit]
27 | FC(F)(F)c1ccc(C(c2ccccc2)N2CCNCC2)cc1 (stereo not drawn) | – | inconclusive: 11.2 µM [inhibitor, partial curve, poor fit]
28 | Cc1ccc(C2=CC(c3c(F)cccc3Cl)n3nnnc3N2)cc1 (stereo not drawn) | – | inconclusive: 28.2 µM [inhibitor, partial curve, poor fit]
29 | CC1CCN(Cc2nc3c(Br)cc(Br)cc3c(=O)[nH]2)CC1 | inactive: 0.6% | –
30 | COc1ccc(Cn2c(=O)c3cccnc3n(Cc3cccc(OC)c3)c2=O)cc1 | – | inconclusive: 35.5 µM [inhibitor, partial curve, poor fit]
31 | COc1cccc(Nc2ncc3c(n2)C(C)(C(=O)NCCc2ccccn2)CC3)c1 (stereo not drawn) | inactive: 1.62% [at 86.2 µM] | –
32 | COc1nc2ccccc2nc1N1CCC(C(=O)NCc2ccc(Cl)cc2)CC1 | inactive: -13.3% | –
33 | Cn1cc(CN2CCN(Cc3ccccc3)CC2)ccc1=O | – | inconclusive: 17.8 µM [inhibitor, single point]
34 | CCN(CC)C(=O)CCc1c(C)nn(-c2ccc(F)cc2)c1Oc1cccc(F)c1 | – | inconclusive: 17.8 µM [inhibitor, partial curve, poor fit]
35 | O[C@@H]1C[C@@H](c2nnc3n2CCN(Cc2cccc4[nH]ccc24)C3)N(Cc2ccccc2)C1 | – | active: 25.1 µM
36 | O=C(NCCc1noc(-c2ccccc2)n1)C1CC1 | inactive: 24% | –
37 | O=C(Nc1ccccc1C(=O)N1CCCC1)c1ncoc1-c1cccc(Cl)c1 | – | inconclusive: 31.6 µM [inhibitor, single point]
38 | Cc1cccc(C(=O)NC(C(=O)N2CCCC2)C2CCN(C(=O)c3cccs3)CC2)c1 (stereo not drawn) | inactive: 20.8% | –
39 | COc1cccc(-c2ccccc2NC(=O)C2CCN(C/C(C)=C/c3ccccc3)CC2)c1 | – | inconclusive: 31.6 µM [inhibitor, single point]
40 | COc1ccc(-c2ccc3c(c2)C(=O)N2CCN(C(=O)c4cccc(F)c4)C[C@@H]2C(=O)N3)cc1 | – | active: 17.8 µM
41 | Cc1cn2nc(C(=O)N3CCC(NC(=O)c4ccccc4)CC3)cc2c(=O)[nH]1 | – | inconclusive: 31.6 µM [inhibitor, single point]
42 | COc1cccc(NS(=O)(=O)c2ccc3[nH]cc(C(=O)N4CCCCCC4)c(=O)c3c2)c1 | – | inconclusive: 15.8 µM [inhibitor, partial curve, poor fit]
43 | Cc1ccc(C(=O)Nc2ccc(-c3nc4ccccc4s3)c(C)c2)cc1 | – | inconclusive: 10 µM [inhibitor, partial curve, poor fit]
44 | CC(OC(=O)CCOc1ccccc1)C(=O)Nc1ccc(S(N)(=O)=O)cc1 (stereo not drawn) | inactive: 27.7% | –
45 | OC1CC(c2cc(N3CCN(c4nsc5ccccc45)CC3)ncn2)C1 (stereo not drawn) | – | active: 31.6 µM
46 | CCN1CCN(c2oc(/C=C/c3ccccc3OC)nc2C#N)CC1 | – | inconclusive: 31.6 µM [inhibitor, partial curve, poor fit]

Row | SMILES | activity change, negative = inhibition | Potency
47 | CCOc1ccc2c(n1)CCN(C(=O)c1sccc1C)C2 | – | inconclusive: 22.4 µM [inhibitor, partial curve, poor fit]
48 | CCCc1cc(=O)[nH]c(SCc2nc(-c3cccc(OC)c3)no2)n1 | inactive: 11.1% | –
49 | Cc1cc(=O)oc2cc(OCC(=O)NC3CCN(Cc4ccccc4)CC3)ccc12 | – | inconclusive: 10 µM [inhibitor, partial curve, poor fit]
50 | Cc1ccccc1-c1nn2c(COc3ccccc3)nnc2s1 | – | inconclusive: 39.8 µM [inhibitor, single point]
51 | O=C(c1ccoc1)N1CCCN(CCc2ccccc2)c2ccccc21 | – | inconclusive: 11.2 µM [inhibitor, partial curve, poor fit]
52 | Cn1c(=O)c2c(-c3cccc(Br)c3)n(CCO)cc2n(C)c1=O | – | inconclusive: 22.4 µM [inhibitor, partial curve, poor fit]
53 | Cc1ccc(NC(=O)c2cc(S(=O)(=O)N3CCCC(C)C3)cn2C)c(Br)c1 (stereo not drawn) | – | inconclusive: 35.5 µM [inhibitor, single point]
54 | COc1cc(/C=C(\C#N)c2nc3ccccc3n2C)cc(OC)c1OC | – | inconclusive: 17.8 µM [inhibitor, partial curve, poor fit]
55 | COc1ccc(-c2cc(N3CCCN(C(=O)c4ccccc4Cl)CC3)n[nH]2)cc1 | – | inconclusive: 12.6 µM [inhibitor, partial curve]
56 | COc1cccc(NC(=O)Nc2c(N3CCCC3)c3ccccc3oc2=O)c1 | inactive: 6.06% | –
57 | O/N=C/c1ccc(OCc2ccc(Cl)cc2)cc1 | – | inconclusive: 39.8 µM [inhibitor, partial curve, poor fit]
58 | CN(Cc1cc2ccccc2s1)C(=O)c1cc(CN2CCCC(O)C2)on1 (stereo not drawn) | inactive: -8.57% | –
59 | Cc1ccc(-c2ccc3nnc(CNC(=O)C4CC4)n3n2)cc1 | – | active: 14.1 µM
60 | O=C(NCCc1ccc2c(c1)OCCO2)c1ccc(NC(=O)c2ccco2)cc1 | – | inconclusive: 39.8 µM [inhibitor, single point]
61 | NCc1cccc(-c2cccc(Cl)c2)c1 | inactive: 13.5% [at 149 µM] | –
62 | CCn1c(SCC(=O)c2ccc(Cl)s2)nnc1-c1ccccc1 | inactive: 5.19% | –
63 | CCn1cnnc1CCNC(=O)c1cc(-c2ccc(C)cc2)nc2ccccc12 | – | active: 28.2 µM
64 | CCc1nc2c(=O)n(CC(=O)N3CCN(c4ccc(Cl)cc4)CC3)nc(C)c2s1 | inactive: 6.25% | –
65 | OC[C@@H]1CN(Cc2cccnc2)C[C@H]1c1ccncc1 | – | inconclusive: 17.8 µM [inhibitor, partial curve, poor fit]
66 | Cc1ccc(-c2nc3ccccn3c2Nc2ccc3c(c2)OCO3)cc1 | – | inconclusive: 28.2 µM [inhibitor, partial curve, poor fit]
67 | Cc1csc2nc(-c3cccc(NC(=O)c4ccccc4Cl)c3)cn12 | – | inconclusive: 2.51 µM [inhibitor, partial curve, poor fit]
68 | COc1ccc(C(=O)COC(=O)c2cccc(NC(=O)c3ccc(OC)c(OC)c3)c2)cc1 | – | inconclusive: 17.8 µM [inhibitor, partial curve, poor fit]
